By inhibition is commonly meant the change of the read-out against control, counted positive when it falls.

Molecules are shown by their SMILES. Out of some 340,000 compounds screened, about 6,900 (2%) were called active. Cut-off read from the data, not from the text of the source: active = inhibition above about 30%; inactive = below that, where a call was filed. This is a selection; strong and weak results do not stand in their true shares. The source gives no active or inactive call for entries shown without one.

Consider 95 molecules from PubChem BioAssay AID485344 (National Center for Advancing Translational Sciences (NCATS), 2010).

This test concerns the target D(2) dopamine receptor (Homo sapiens) (UniProt P14416). Description: HTS Assay for Allosteric Antagonists of the Human D2 Dopamine Receptor: Primary Screen for Antagonists. Note: 0% is about no effect. The following applies: HEK293 TREx D2 cells, calcium flux, dopamine EC80; at 10 µM; stronger effect = higher value. Summed up: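 Calcium mobilization kinetics were recorded at 1 s intervals in tetracycline-induced HEK293 T-REx D2 cells, first for 180 s after compound addition and then 180 s after EC80 dopamine.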
Chain of UniProt P14416 (P14416 whole entry, looked up): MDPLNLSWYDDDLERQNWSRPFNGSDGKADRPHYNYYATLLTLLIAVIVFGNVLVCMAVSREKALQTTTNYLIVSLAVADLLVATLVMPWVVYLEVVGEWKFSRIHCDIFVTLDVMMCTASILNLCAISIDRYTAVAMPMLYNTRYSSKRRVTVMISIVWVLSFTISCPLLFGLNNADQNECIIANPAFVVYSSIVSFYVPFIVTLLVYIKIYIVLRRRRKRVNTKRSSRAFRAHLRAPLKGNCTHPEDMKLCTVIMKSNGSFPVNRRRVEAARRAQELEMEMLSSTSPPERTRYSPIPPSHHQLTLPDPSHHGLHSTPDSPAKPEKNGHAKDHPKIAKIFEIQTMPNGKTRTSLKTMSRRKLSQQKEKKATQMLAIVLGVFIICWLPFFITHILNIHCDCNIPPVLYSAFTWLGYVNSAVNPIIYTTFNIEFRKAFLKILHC
A general note: Calcium flux is commonly read through the fluorescence of an indicator in the cells.
On to `Cc1cc(C)cc(-n2ccn(Cc3ccccc3C)c(=O)c2=O)c1`, for which the inhibition worked out at 18.1%.

Turning to `Cc1ccc(CNC(=O)C2COc3ccccc3C2)cc1` (stereo not given), the inhibition is 1.17%.

`COc1ccc2c(c1)Cc1sc(NC(=O)c3cccc(C)c3)nc1-2`: the inhibition worked out at 1.03%.

For `CCc1ccccc1NC(=O)Cn1c(=O)n(-c2ccc(CC(=O)NCC3CCCO3)cc2)c(=O)c2ccccc21` (stereo not given), the inhibition is -2.39%.

`COc1ccc(CNC(=O)c2ccc3c(c2)N(Cc2ccc(C)cc2)CCS3)cc1`: the inhibition stood at 7.45%.

On to `Cc1ccccc1C(=O)Nc1ccc2nc(SCC(=O)N3CCc4ccccc43)sc2c1`, for which the inhibition was -14.8%.

Turning to `COc1cccc(-n2c(=O)c3sccc3n(CC(=O)NC3CCCCC3)c2=O)c1`, the inhibition is active: 30.5%.

Take `CCOC(=O)c1cnc2nc(NCc3cccc(Br)c3)[nH]n2c1=O`: the inhibition was -7.39%.

On to `CCOC(=O)c1ccc(NC(=O)CN2CCN(C(=O)c3ccco3)CC2)cc1`, for which the inhibition is active: 67.4%.

As to `COc1ccccc1CNS(=O)(=O)c1ccc(-c2cnc(C3CC3)o2)cc1`, the inhibition stood at 14.8%.

Regarding `COCCNC(=O)c1c[nH]c2ccc(S(=O)(=O)Nc3ccc(F)cc3F)cc2c1=O`, the inhibition came out at 11.2%.

With `CCc1ccc(C2=NN(CCC(=O)NCCc3ccc(OC)c(OC)c3)C(=O)CC2)cc1`, the inhibition came to 4.3%.

Consider `CCCOc1ccc(-c2nonc2NC(=O)c2cc(OC)c(OC)c(OC)c2)cc1OCCC`, for which the inhibition is -6.84%.

Regarding `CC(C)c1nn2c(=O)cc(COC(=O)c3cccc(NC(=O)c4cccs4)c3)nc2s1`, the inhibition came out at 7.14%.

As to `Cc1ccc(N2CC(NC(=O)c3cc4ccccc4o3)CC2=O)cc1C` (stereo not given), the inhibition is 4.11%.

As for `CCc1ccccc1NC(=O)CCOc1ccccc1`, the inhibition was -1.54%.

Regarding `COc1cc(C2c3c(oc4ccccc4c3=O)C(=O)N2c2ccccn2)cc(OC)c1OC` (stereo not given), the inhibition is -6.01%.

With `COC(=O)[C@@H]1[C@H]2C[C@H]3c4[nH]c5ccccc5c4CCN3C[C@@H]2CC[C@@H]1O`, the inhibition is active: 58.1%.

In the case of `CCCc1nn2c(=O)cc(COC(=O)c3ccccc3NC(=O)c3cccs3)nc2s1`, the inhibition came to 8.41%.

As for `COc1ccc(N(Cc2cccs2)C(=O)c2ccc(OCC(C)C)cc2)cc1`, the inhibition stood at 3.35%.

`Cc1ccc(C)c(C(=O)c2c(N)c(-c3nc(-c4ccc5c(c4)OCO5)cs3)c3ccccn23)c1`: the inhibition was -1.38%.

Consider `Cc1cccc(NC(=O)C2CCC(CNS(=O)(=O)c3ccc(Br)s3)CC2)c1` (stereo not given), for which the inhibition is 26%.

Take `COc1cccc(C2CC(=O)N(c3ccc(F)cc3)C3=C2C(=O)OC3)c1OC` (stereo not given): the inhibition was -7.53%.

As for `Cc1ccc(OCC(=O)Nc2ccc(Cl)c(-c3nc4ncccc4o3)c2)c(C)c1`, the inhibition was found to be 1.77%.

For `Cc1cn2c(=O)cc(COc3ccc(Cl)cc3)nc2s1`, the inhibition was -16.4%.

Turning to `COc1cc(NC(=O)Nc2cccc(-c3noc(C)n3)c2)cc(OC)c1OC`, the inhibition turned out to be 23.3%.

Regarding `CCOc1ccc(-n2c(=O)c3c(C)c(C)sc3n(CC(=O)N(CC)Cc3ccccc3)c2=O)cc1`, the inhibition is -3.26%.

Take `Cc1ccc(Cl)cc1NC(=O)Cc1ccc(-n2c(C)nc3cccnc32)cc1`: the inhibition came out at 9.98%.

As to `CCOc1ccc(CNc2nc3nc(C)c(Cc4ccccc4)c(=O)n3[nH]2)cc1`, the inhibition was -1.44%.

Turning to `COc1ccc2c(c1)CC(C(=O)Nc1cc(Cl)ccc1C)CO2` (stereo not given), the inhibition was 0.972%.

Take `CCc1ccc(CNC(=O)C2Cc3cc(S(=O)(=O)N4CCCCCC4)ccc3N2C(C)=O)cc1` (stereo not given): the inhibition was -13.4%.

`COc1cccc(Nc2cc(C)nc3nc(-c4ccc(Cl)cc4)nn23)c1`: the inhibition is -4.67%.

Regarding `N#Cc1c(N)n(-c2cccc(Cl)c2)c2nc3ccccc3nc12`, the inhibition was -3.1%.

With `Cc1nn2c(=O)cc(COc3ccc(/C=C(\C#N)C(=O)Nc4ccc(F)cc4)cc3)nc2s1`, the inhibition was found to be 20.9%.

For the molecule `Cc1nn(C)c2c1c(-c1ccccc1)cc(=O)n2CC(=O)Nc1ccccc1C(F)(F)F`, the inhibition was -3.76%.

With `CCOC(=O)COc1ccccc1C1C(C(=O)OC)=C(C)NC2=C1C(=O)c1ccccc12` (stereo not given), the inhibition was -12.6%.

On to `COc1cc(NC(=O)CSc2nc3ccccc3nc2Cc2ccc(Cl)cc2)cc(OC)c1`, for which the inhibition is -13.4%.

For the molecule `COCCCNC(=O)CSc1nc2c(sc3ccccc32)c(=O)n1CCc1ccccc1`, the inhibition was -15.9%.

In the case of `Cc1nc2c(c(C)c1CCC(=O)NCc1ccccc1)c(=O)n(C)c(=O)n2C`, the inhibition was -1.93%.

As to `CCOC(=O)c1cccc(NC(=O)c2cc3c(-c4cccc(OC)c4)nn(C)c3s2)c1`, the inhibition stood at 18.6%.

With `CC(C)(C)c1ccc(OCC(=O)Nc2ccc(S(=O)(=O)Nc3ncccn3)cc2)cc1`, the inhibition is -23.9%.

With `Cc1ccc(S(=O)(=O)c2nc(S(C)(=O)=O)sc2N(C)Cc2ccccc2)cc1`, the inhibition is -3.47%.

Consider `Cc1cccc(NC(=O)C2CCC(CNS(=O)(=O)c3csc(C(N)=O)c3)CC2)c1C` (stereo not given), for which the inhibition turned out to be 3.96%.

Turning to `COc1ccc2nc(NC(=O)c3nc(SC(C)C)ncc3Cl)sc2c1`, the inhibition is -2.8%.

Regarding `O=C(NC1CCCC1)c1cc(Nc2cccc(C(F)(F)F)c2)nc2ccccc12`, the inhibition is -7.64%.

On to `CCC(=O)N1CCc2cc(Br)cc(S(=O)(=O)CCC(=O)N3CCN(c4ccccc4F)CC3)c21`, for which the inhibition is -9.68%.

In the case of `O=C(C1CCN(S(=O)(=O)Cc2ccccc2)CC1)N1CCN(c2ccccc2)CC1`, the inhibition worked out at 15.1%.

In the case of `CCOC(=O)c1cccc(NS(=O)(=O)c2ccc(-c3cnc(C4CC4)o3)cc2)c1`, the inhibition turned out to be 5.35%.

Consider `NC(=O)c1nc(Nc2ccccc2)sc1NC(=O)c1ccccc1Br`, for which the inhibition turned out to be 7.02%.

Consider `S=C(NC1CCCCC1)NC1CC2CCC(C1)N2Cc1ccccc1` (stereo not given), for which the inhibition was active: 76.9%.

In the case of `COc1ccc2c(c1)Sc1ccccc1N2CCN(C)C`, the inhibition is active: 40%.

As to `Cc1ccc(OCC(=O)Nc2ccc3nc(SCC(=O)N4CCOCC4)sc3c2)cc1`, the inhibition was -2.83%.

As to `CC(=O)c1c(C)[nH]c(C(=O)N(C)CC(=O)Nc2ccc(Cl)c(C(F)(F)F)c2)c1C`, the inhibition was active: 39.3%.

Take `COc1ccccc1NC(=O)CSc1ncc2c(n1)-c1cc(Cl)ccc1N(Cc1ccccc1)S2(=O)=O`: the inhibition is -5.65%.

As for `CCCCNC(=O)CCCn1c(=O)c2ccccc2n(Cc2cccc(Cl)c2)c1=O`, the inhibition worked out at 0.525%.

For the molecule `Cn1c(CN2CCCCC2)nc2cc(NC(=O)c3ccccc3Cl)ccc21`, the inhibition was -2.94%.

Consider `COc1ccc(OC)c(CNC(=O)C2CCN(c3nc4ccccc4nc3C(F)(F)F)CC2)c1`, for which the inhibition turned out to be 1.25%.

As to `Cc1ccc(C)n1-c1nnc(N2CCCC(C(=O)NCc3cccc(F)c3)C2)s1` (stereo not given), the inhibition was -4.98%.

Turning to `Cc1ccc2[nH]c3c(=O)n(CC(=O)N4CCCCC4)ncc3c2c1`, the inhibition was -3.58%.

In the case of `Clc1ccc(C(c2ccccc2)c2c[nH]c3ccccc23)s1` (stereo not given), the inhibition was -2.27%.

With `Nc1cc(=O)[nH]c(SCC(=O)Nc2cc(Cl)cc(Cl)c2)n1`, the inhibition is active: 30.1%.

`COc1cc(OC)cc(-c2cc3nc(C)c(CCC(=O)NCc4ccc(Cl)cc4)c(C)n3n2)c1`: the inhibition was -2.03%.

For `Cc1cc2oc(=O)cc(C)c2c2occ(-c3ccc(Cl)cc3)c12`, the inhibition was -0.542%.

On to `COc1ccc(C(=O)Nc2ccc(-n3nncc3-c3ccccc3)cc2)cc1OC`, for which the inhibition was -23.1%.

On to `Cc1cccc(N2CCN(C(=O)Cn3ncc4c5ccccc5n(C)c4c3=O)CC2)c1C`, for which the inhibition was determined as 4.92%.

With `CCOC(=O)N1CCN(S(=O)(=O)c2c(C)cc(C)cc2C)CC1`, the inhibition was active: 54%.

Turning to `CCOC(=O)c1cc(OC(=O)c2ccccc2C)n(-c2ccccc2)n1`, the inhibition was 5.49%.

For the molecule `CCCCn1nnc(NC(=O)c2ccc(-c3ccccc3[N+](=O)[O-])o2)n1`, the inhibition is active: 51.7%.

In the case of `COc1cccc(N2CCN(C(=O)CCS(=O)(=O)c3ccc4c(c3)oc(=O)n4C)CC2)c1`, the inhibition was found to be 1.39%.

Consider `COCCCNC(=O)C1CCN(c2nc3ccc(C)cc3[nH]2)CC1`, for which the inhibition is -5.53%.

Regarding `Cc1ccc(S(=O)(=O)N2CCC(C(=O)Nc3ccc(C)c(Cl)c3)CC2)cc1`, the inhibition was 1.58%.

Take `O=C1c2[nH]nc(-c3ccccc3O)c2C(c2cccc(OCc3ccccc3)c2)N1CCO` (stereo not given): the inhibition is -10.6%.

As for `CN(CCNC(=O)CCCOc1cc(=O)n(C)c2ccccc12)Cc1ccccc1`, the inhibition was active: 47.3%.

Consider `COc1ccc(CCNC(=O)C(=O)NCC(c2cccs2)S(=O)(=O)c2ccc(C)cc2)cc1` (stereo not given), for which the inhibition is -27.3%.

`CCN(CC)C(=O)Cn1c(=O)n(-c2ccc(Cl)cc2)c(=O)c2c3c(sc21)CCC3`: the inhibition stood at 18.5%.

Turning to `CCOC(=O)c1c(C)[nH]c(C)c1S(=O)(=O)N1CCN(c2cccc(C(F)(F)F)c2)CC1`, the inhibition was 0.459%.

With `COc1ccc(C(=O)COC(=O)C(Cc2c[nH]c3ccccc23)NC(=O)c2ccc(C(C)(C)C)cc2)cc1` (stereo not given), the inhibition was -2.35%.

Consider `Cc1ccc(CCNC(=O)c2ccc3c(c2)N(Cc2cccc(Cl)c2)C(=O)c2ccccc2S3(=O)=O)cc1`, for which the inhibition was 13.8%.

Turning to `Cc1cc(C)cc(OC(C)C(=O)Nc2c(C(=O)c3ccccc3)oc3ccccc23)c1` (stereo not given), the inhibition was found to be 0.212%.

For `O=C(Nc1cccc(C(F)(F)F)c1)C1CCCN1S(=O)(=O)c1cccc2nsnc12` (stereo not given), the inhibition stood at 10.6%.

For the molecule `c1ccc(CSc2nc3ncccc3[nH]2)cc1`, the inhibition stood at 10.9%.

`CCCN(CCC)S(=O)(=O)c1ccc(C(=O)Nc2sc3c(c2C(=O)OC)CCN(CC)C3)cc1`: the inhibition was -7.51%.

Consider `Cc1ccc(CO/N=C\Cc2snc(Sc3ncc(C(F)(F)F)cc3Cl)c2C#N)cc1`, for which the inhibition is active: 33.5%.

Turning to `CSc1ccc(C2c3c(oc4cc(C)cc(C)c4c3=O)C(=O)N2Cc2ccco2)cc1` (stereo not given), the inhibition came out at 14.7%.

On to `COc1ccc(OC)c(NS(=O)(=O)c2ccc(-c3cc(C)no3)s2)c1`, for which the inhibition came to 1.22%.

Turning to `Cc1cccc(C(=O)Nc2nnc(S(=O)(=O)N(C)c3ccccc3C)s2)c1`, the inhibition is -1.46%.

Take `Cc1ccc(-n2c(-c3ccco3)nc3c(cnn3-c3ccccc3Cl)c2=O)cc1`: the inhibition was 18.1%.

With `CC(C)c1cnc2c(c1SCC(=O)Nc1cccc(F)c1)c(=O)n(C)c(=O)n2C`, the inhibition is -1.84%.

Regarding `Cc1ccc(Cl)cc1Nc1nn2c(=O)c3ccc(C(=O)N4CCCC(C)C4)cc3nc2s1` (stereo not given), the inhibition came to 2.51%.

As for `CCn1cc2nc(SCc3cccc(Cl)c3)n(Cc3ccc(C)cc3)c(=O)c2n1`, the inhibition is -22.4%.

Consider `O=C(Nc1cccc(F)c1)C1CCN(S(=O)(=O)c2cccc3nsnc23)CC1`, for which the inhibition was -2.49%.

As to `COc1ccc(CCNS(=O)(=O)c2cc(-c3cc(C)no3)ccc2C)cc1OC`, the inhibition is -3.11%.

Consider `CN(C)c1ccc(CNC(=O)CCn2cccn2)cc1`, for which the inhibition came to 17.8%.

Turning to `CCc1ccc(CN2CCc3nc(N4CCN(CC)CC4)ncc3C2)cc1`, the inhibition stood at 8.54%.

As for `CCc1cccc(CN2CCC(CNC(=O)Nc3ccc(Cl)cc3)CC2)c1`, the inhibition was active: 35.5%.
